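These data come from cells grown in 96-well plates and exposed to compound for 48 hours at five concentrations. Abbreviation: GI50, concentration required for 50% inhibition of growth.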 Active and inactive are the calls of the source. Cut-off read from the data, not from the text of the source: active = GI50 up to about 1.1 µM and inactive = higher. Bounds are passed on as bounds.

This assay has as its system NCI-H322M. Description: DTP human tumour cell line panel, 48 h.
On to `COc1cc2c(cc1O)CC1c3c(cc(O)c(OC)c3-2)CCN1C` (stereo not given), for which the GI50 was inactive: > 100 µM.
Under `COc1cc(OC)c2c(C)cc(=O)oc2c1` stands inactive: 44.9 µM; under `O=C1Nc2ccccc2/C1=N/NS(=O)(=O)c1ccc(C(=O)O)cc1`, inactive: > 100 µM.
The result for `O=C(O)CN1CCNCCN(CC(=O)O)CCNCC1` reads inactive: > 89.7 µM; that for `CC(Cc1ccc(O)cc1)NCC(O)c1ccc(O)c(O)c1` (stereo not given), inactive: > 100 µM; that for `CC1=C(C(=O)NCc2ccccc2)C(c2ccc(Cl)c(Cl)c2)C(C(=O)NCc2ccccc2)=C(C)N1`, inactive: > 100 µM.
The result for `CC(=O)OCC1OC(n2c3c(c(-c4ccc(Cl)cc4)c(C#N)c2=S)CCCC3)C(OC(C)=O)C(OC(C)=O)C1OC(C)=O` (stereo not given) reads inactive: 78.2 µM.
Regarding `CCOC(=O)[C@H](O)[C@@H](O)C(=O)NCc1ccc(C(=O)c2ccccc2)cc1`, the GI50 is inactive: > 100 µM.
Under `CC(C)(C)[Si](C)(C)OCC1CCC(n2cnc3c(NC(=O)c4ccccc4)ncnc32)O1` (stereo not given) stands inactive: 20.1 µM; under `CCCCCCCCCCCCCCCC(=O)OC1C(O)C(CO)OC(OC)C1NC(=O)N(CCCl)N=O` (stereo not given), inactive: 15.6 µM; under `COc1cc(C2C(C#N)=C(N)OC3=C2CCS(=O)(=O)c2ccc(C)cc23)cc(OC)c1OC` (stereo not given), inactive: > 100 µM.
The result for `NC1=NN(c2ccccc2)C(=O)C1C(=O)CCC(=O)Nc1cccc(C(F)(F)F)c1` (stereo not given) reads inactive: > 100 µM; that for `COc1cc(/C=N\c2ccc(C(C)C)cc2)cc(OC)c1OC`, inactive: > 100 µM.
The result for `COc1ccc(OC)c2cc(Cc3ccc(N(C)C)cc3)c(=O)c(Cc3ccc(N(C)C)cc3)cc12` reads inactive: > 100 µM; that for `CC1CCC(C(=O)O)(C(Br)C(=O)O)CC1` (stereo not given), inactive: > 100 µM; that for `CCCCc1cc2c(C)cc(=O)oc2c(O)c1O`, inactive: 45.7 µM.
`C/C(=N\NS(=O)(=O)c1ccccc1)c1ccc[n+]([O-])n1`: the GI50 is inactive: > 100 µM.
For `CC(=O)OCC(OC(C)=O)C(OC(C)=O)C(OC(C)=O)C(C=NN(C(C)=O)S(=O)(=O)c1ccc(/C=C2\NC(=O)N(C)C2=O)cc1)OC(C)=O` (stereo not given), the GI50 is inactive: 35.8 µM.
Under `CCOC(=O)NC(Nc1ncccn1)(C(=O)OCC)C(F)(F)F` (stereo not given) stands inactive: > 100 µM; under `ON1CCc2c([nH]c3ccccc23)C1c1ccc(Cl)cc1` (stereo not given), inactive: 44.2 µM; under `O=C1C(c2ccccc2)=C(c2ccccc2)C(c2ccc(-c3ccc(C4=C(c5ccccc5)C(=O)C(c5ccccc5)=C4c4ccccc4)cc3)cc2)=C1c1ccccc1`, inactive: > 100 µM.
The result for `CC(C)Oc1c(C2(c3ccccc3)SCCCS2)c(=O)c1=O` reads inactive: > 100 µM; that for `CCO/C=N\c1c(C#N)c(-c2ccc(Cl)cc2)cn1-c1ccc(C)cc1`, inactive: > 100 µM.
The result for `N#CCc1n[nH]c2nc(SCc3ccccc3)nc(N3CCCCC3)c12` reads inactive: 21.6 µM; that for `CC1(CO)COS(=O)OC1` (stereo not given), inactive: > 100 µM.
On to `CCCCCCCSc1nc2c(C(=O)OCC)ncn2c2ccccc12`, for which the GI50 is inactive: > 100 µM.
Under `COC(=O)C(CCC1C=CN(S(=O)(=O)c2ccc(C)cc2)C1)/N=C/c1ccccc1` (stereo not given) stands inactive: 90.8 µM.
The result for `C/C(NC(=O)c1ccccc1)=C(/C(=O)c1ccccc1)[C@@H]1OC(C)(C)O[C@@H]1[C@H]1COC(C)(C)O1` reads inactive: 31.4 µM.
For the compound `Cc1cn(C2CC(O)C(Cn3cc(Cn4nc(Br)c(=O)[nH]c4=O)nn3)O2)c(=O)[nH]c1=O` (stereo not given), the GI50 was inactive: > 100 µM.
Under `CN1CCCC2C(c3ccccc3)C(C3=NCCCC3)C(c3ccccc3)CC21` (stereo not given) stands inactive: 52.5 µM; under `NC(CCCCCP(=O)(c1ccccc1)C1C=CC=CC1)C(=O)O` (stereo not given), inactive: > 100 µM; under `N#CCCCCCOCCOCCOCCOCCOCCCCCC#N`, inactive: > 100 µM.
Under `COc1cccc(C2c3cc4c(cc3OC(C)(N3CCCC3)C2C)OCO4)c1OC` (stereo not given) stands inactive: 16.7 µM; under `Cc1cc2c(C)n(Cc3ccc(Cl)cc3Cl)nc2c(C(=O)O)c1C`, inactive: > 100 µM.
The result for `O=c1[nH]nc(Cc2ccc(Cl)cc2)n1/N=C/c1ccc([N+](=O)[O-])o1` reads inactive: 3.81 µM; that for `COc1cc2oc(-c3ccc(O)cc3)c(OC3OC(C)C(O)C(O)C3O)c(=O)c2c(O)c1OC` (stereo not given), inactive: > 100 µM.
With `CC(C)(O)C1CC(=O)C(C)(C2C(O)CC3(C)C4CC=C5C(CCC(O)C5(C)C)C4(C)C(=O)CC23C)O1` (stereo not given), the GI50 was inactive: > 100 µM.
The result for `CCOC(=O)N1CCC2(CC1)C[C@](Sc1ccccc1)(C(C)=O)[C@H](C)O2` reads inactive: > 100 µM; that for `O=C(O)CNS(=O)(=O)c1ccc(NC(=O)CI)cc1`, inactive: 30.5 µM.
The result for `CC(=O)NC(CCCCN)C(=O)NCc1ccccc1` (stereo not given) reads inactive: > 100 µM; that for `C/C(=N/O)c1ccc2c(c1)/C(=N/O)c1cc(/C(C)=N/O)ccc1-2`, inactive: 17.3 µM; that for `CN(C)CC1CC/C(=C\c2ccc3c(c2)OCO3)C1=O` (stereo not given), inactive: 24.9 µM.
`O=c1[nH]c(=O)c2c([nH]1)[nH]c1ccccc12`: the GI50 is inactive: > 100 µM.
Under `c1ccc2sc(SSSc3nc4ccccc4s3)nc2c1` stands inactive: > 100 µM.
Under `Cc1ccc2oc(=O)c3c(O)c4cccc(OC5OC(C)C6O[C@@H](c7ccccc7)OC6C5OC5OC(C)C(O)C(O)C5O)c4c4oc(=O)c1c2c34` (stereo not given in full) stands active: 0.136 µM; under `CCCCC/C(C=O)=C\c1ccccc1`, inactive: > 100 µM; under `CC(=N\N)/C(C)=N/N=C(C)/C(C)=N/N=C(C)/C(C)=N/N`, inactive: > 100 µM.
Under `COc1ccc2c(c1)CC[C@@H]1[C@@H]2CC[C@]2(C)C(=O)/C(=C/c3ccc(N(C)C)cc3)C[C@@H]12` stands inactive: 61.5 µM; under `Cl[Si]1(Cl)Oc2ccccc2O[Si](Cl)(Cl)Oc2ccccc2O1`, inactive: 16.1 µM; under `[N-]=[N+]=CC(=O)CCC(=O)N(c1ccccc1)c1ccccc1`, inactive: 8.24 µM.
As to `Cn1c(N(CCO)CCO)cnc1[N+](=O)[O-]`, the GI50 was inactive: > 100 µM.
Under `CNC(=S)NNc1ncnc2c1ncn2-c1ccc(C)cc1` stands inactive: > 100 µM; under `COC(=O)Cc1cc(O)c2c(c1O)C(=O)c1ccccc1C2=O`, inactive: > 68.9 µM.
The result for `COc1cc(C2c3cc4c(cc3OC(NNS(=O)(=O)c3ccc(C)cc3)C2C)OCO4)cc(OC)c1O` (stereo not given) reads inactive: 23.7 µM.
Regarding `CC1(C=O)CC(CCc2ccccc2)NC1Cc1ccc(O)cc1` (stereo not given), the GI50 is inactive: 17.6 µM.
The result for `O=C1/C(=C/c2ccc(O)c([N+](=O)[O-])c2)CCC/C1=C\c1ccc(O)c([N+](=O)[O-])c1` reads inactive: 15.3 µM; that for `OC(c1nc2ccccc2[nH]1)C(O)C(O)C(O)c1nc2ccccc2[nH]1` (stereo not given), inactive: > 100 µM; that for `CC(Oc1ccc2c(=O)cc(-c3ccccc3)oc2c1)C(=O)O` (stereo not given), inactive: > 100 µM.
Under `CC(O)C1(CNc2cc(Cl)nc(N)n2)CC(CCc2ccccc2)C1` (stereo not given) stands inactive: 13.3 µM; under `CCc1cc(Cc2ccc(C)c(NC(=O)C(=O)C3C(=O)NC(=O)NC3=O)c2CC)cc(C)c1NC(=O)C(=O)C1C(=O)NC(=O)NC1=O`, inactive: > 100 µM.
On to `CC(Br)C(=O)Nc1ccc(C(=O)O)c(O)c1` (stereo not given), for which the GI50 is inactive: 27.2 µM.
The result for `COC(=O)[C@]12C3=C(O)C(=O)C[C@H]1OC[C@H]2C=CC3` reads inactive: > 100 µM.
The result for `C=CC(=O)Nc1ccccc1CC(c1c[nH]c2ccccc12)c1c[nH]c2ccccc12` reads inactive: 17.1 µM; that for `NCCSCCC(=O)O`, inactive: > 100 µM.
Turning to `C=CCn1c2c(sc1=S)C(S)NC=N2` (stereo not given), the GI50 is inactive: 81.5 µM.
Turning to `COc1cc2c(cc1OC)NC(=O)NC(Cc1ccc3c(c1)OCO3)CC2` (stereo not given), the GI50 is inactive: > 100 µM.
The result for `O=c1[nH]c(=S)c2cc3c(=S)[nH]c(=O)n(CCO)c3nc2n1CCO` reads inactive: > 100 µM.
Under `CC(C)(C)[C@H]1NC(=O)CN1C(=O)OCc1ccccc1` stands inactive: > 100 µM; under `CCOC(=O)Cn1c(=O)c2nc(SC)sc2n(-c2ccc(C)cc2)c1=S`, inactive: > 61.8 µM.
Under `CCC(C)CC(C)CC(C)/C=C(\C)C1=C(C)CC(C)(O)O1` (stereo not given) stands inactive: > 100 µM.
With `O=[N+]([O-])c1cc(F)ccc1S(=O)(=O)c1ccccc1`, the GI50 is inactive: > 10 µM.
Under `O=C(CCCCCCCCCCc1ccccc1)c1c(O)cccc1O` stands inactive: 31.2 µM.
For `O=C1O[B-](c2ccccc2)(c2ccccc2)[NH+]2CCCC12` (stereo not given), the GI50 is inactive: > 100 µM.
The result for `COc1cc([C@H]2c3[nH]c4ccccc4c3C[C@H]3COC(=O)N32)cc(OC)c1O` reads inactive: 2.86 µM; that for `CC(=O)O[C@H]1C(=O)[C@@]2(C)C([C@H](OC(=O)c3ccccc3)[C@]3(O)C[C@H](OC(=O)[C@H](O)[C@@H](NC(=O)c4ccc(Cl)cc4)c4ccccc4)C(C)=C1C3(C)C)C1(OC(C)=O)CO[C@@H]1C[C@@H]2O` (stereo not given in full), active: 0.083 µM; that for `C=CCc1ccc(O)c(-c2cc(C3Oc4c(-c5cc(CC=C)ccc5O)cc(O)cc4[C@@H]3CO)ccc2O)c1` (stereo not given in full), inactive: 30.2 µM.
Take `COC1C2C[C@@H](O)CCC2C(C(=O)OCCl)C[C@H]1O` (stereo not given in full): the GI50 was inactive: > 100 µM.
The result for `CCCCCCCCCCCC[C@@H](O)[C@H]1CC[C@H]([C@H]2CC[C@H]([C@H](O)CC[C@H](O)CCCCCCCC3=C[C@H](C)OC3=O)O2)O1` reads inactive: 2.23 µM.
The result for `Cc1cc(C)c(C(=O)/C=C/c2ccccc2)c(C)c1` reads inactive: > 10 µM.
Under `CCC1(O)C(=O)OCc2c1cc1n(c2=O)Cc2cc3cc4c(cc3nc2-1)OCO4` (stereo not given) stands active: 0.0333 µM.

Broadly, the GI50 is the concentration that inhibits growth by half.

Values taken from ChEMBL document CHEMBL1201862, “PubChem BioAssay data set” (2004).
